Reference: PubChem BioAssay AID485344 (National Center for Advancing Translational Sciences (NCATS), 2010)
Where “and” joins values, the source holds several entries; their conditions need not be identical. Equal values may be shown once. About 6,900 (2%) of roughly 340,000 compounds were called active. No stated cut-off is given here; in the data, active means inhibition above about 30%; inactive means below that, where a call was filed. The entries are a selection whose mix differs from that of the whole data set. The source gives no active or inactive call for entries shown without one.

target: D(2) dopamine receptor (Homo sapiens) (UniProt P14416); test: HTS Assay for Allosteric Antagonists of the Human D2 Dopamine Receptor: Primary Screen for Antagonists; conditions: HEK293 TREx D2 cells, calcium flux, dopamine EC80; at 10 µM; stronger effect = higher value; further: 0% is about no effect
UniProt P14416, sequence (P14416 whole entry, looked up): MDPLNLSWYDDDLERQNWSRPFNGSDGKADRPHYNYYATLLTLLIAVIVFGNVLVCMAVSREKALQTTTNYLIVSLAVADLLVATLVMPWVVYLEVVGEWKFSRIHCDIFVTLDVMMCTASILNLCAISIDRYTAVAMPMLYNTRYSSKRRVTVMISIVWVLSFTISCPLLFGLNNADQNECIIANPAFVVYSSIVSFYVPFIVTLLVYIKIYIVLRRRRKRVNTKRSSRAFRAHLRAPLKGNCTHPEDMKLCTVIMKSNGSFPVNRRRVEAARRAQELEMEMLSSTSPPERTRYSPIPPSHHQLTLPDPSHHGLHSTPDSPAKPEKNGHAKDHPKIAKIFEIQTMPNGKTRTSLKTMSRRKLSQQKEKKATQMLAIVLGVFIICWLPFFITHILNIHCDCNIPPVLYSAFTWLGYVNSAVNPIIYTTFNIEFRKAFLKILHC
Outline: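 Overnight-induced (tetracycline, 30 C) HEK293 T-REx cells carrying force-coupled D2 receive a no-wash calcium dye, then compound, then EC80 dopamine at 180 s; signals are read kinetically throughout.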

`COc1ccc(NC(=O)CSc2nc(O)c(Cc3ccccc3)c(=O)[nH]2)cc1` was tested, and the inhibition was active: 52.6%.
With `COc1cccc(OC)c1OCCCNC1CCCC1` the inhibition was active: 47.7%.
`COc1ccccc1C1CCN(Cc2c(C)[nH]c3ccccc23)CC1` was tested, and the inhibition was active: 56.2%.
`Cc1cc(C[n+]2cc(Br)ccc2N)c2ncccc2c1` was tested, and the inhibition was active: 31.6%.
With `COc1ccc(C2=NN(C(=O)CSc3nc(=O)n4cc(C)ccc4n3)C(c3ccc(C)cc3)C2)cc1` (stereo unspecified) the inhibition was active: 40.6%.
In the case of `COc1ccc(-c2noc(CCC(=O)NCCCN3CCN(c4ccc(F)cc4)CC3)n2)cc1`, the inhibition is reported as active: 95.3%.
`CCCCN(C)CCNC(=O)c1nn(-c2ccc(OC)cc2)c(=O)c2c1c1ccccc1n2C` was tested, and the inhibition was 11.9% and active: 34.1%.
With `NC(N)=NCCCC(NC(=O)c1ccccc1)C(=O)Nc1ccc2ccccc2c1` (stereo unspecified) the inhibition was active: 53.7%.
`COc1ccccc1-c1cc(C(=O)NCc2ccccc2)no1` was tested, and the inhibition was active: 80.6%.
In the case of `CC1CCN(Cc2c(C#N)c3ccccc3n2C)CC1`, the inhibition is reported as active: 74.4%.
With `COc1ccc(CN2CCC(=O)N([C@H](CO)c3ccccc3)CC2)cc1` the inhibition was active: 52.5%.
For `CNC(=S)N(CCc1cccc(C)c1)Cc1cc2cc(OC)c(OC)cc2[nH]c1=O`, the inhibition was active: 30.3%.
`COc1c(C)cc(Br)cc1C(=O)O` was tested, and the inhibition was active: 40.5%.

Compared with `Cc1c(NC(=O)c2cc(=O)c3cc(Cl)ccc3o2)c(=O)n(-c2ccccc2)n1C`, `CCSc1ncc(Cl)c(C(=O)Nc2c(C(=O)c3ccccc3)oc3ccccc23)n1` is lower in inhibition: 7.7% for the first, -1.45% for the second.

Compared with `Cc1cccc(-c2nc(Cn3c(SCc4cccc(C(F)(F)F)c4)nc4ccncc43)c(C)o2)c1`, `CCn1cc2nc(SCc3ccccc3F)n(Cc3ccc(C)cc3)c(=O)c2n1` is higher in inhibition: -4.3% for the first, -2.67% for the second.

Compared with `Fc1ccc2c(c1)NC(c1ccncc1)=NC(c1cccs1)=N2`, `O=C(NCCc1csc(-c2ccc(F)cc2)n1)c1ccc(Br)o1` is lower in inhibition: 5.19% for the first, -6.69% for the second.

Compared with `O=C(CCNS(=O)(=O)c1ccc2c(c1)CCN2C(=O)C1CC1)Nc1ccc(F)cc1F`, `Cc1ccc(C)c(NC(=O)c2cc(S(=O)(=O)NCCC3=CCCCC3)ccc2F)c1` is higher in inhibition: -6.82% for the first, 23.7% for the second.

Compared with `Cc1cccc(NC(=O)c2cc(S(=O)(=O)N3CCC4(CC3)OCCO4)ccc2F)c1`, `CCN(Cc1ccccc1)C(=O)CN1C(=O)COc2ccc(S(=O)(=O)N3CCCCCC3)cc21` is higher in inhibition: -2.71% for the first, -0.852% for the second.

Going from `CCOC(=O)c1ccc(NC(=O)Cn2cc(C(=O)c3ccc(Cl)cc3)c(=O)c3ccc(C)nc32)cc1` to `COc1cccc(C(=O)c2cn(CC(=O)Nc3cccc(C)c3C)c3nc(C)ccc3c2=O)c1`, the inhibition rises from -13.6% to 4.97%.

First: COc1ccc2oc(-c3ccc(C)c(NC(=O)Cc4ccc(Cl)cc4)c3)nc2c1
Second: CCOC(=O)c1c(-c2ccc(OC)cc2)oc2ccc(OCc3ccc(C(=O)OC)cc3)cc12
The inhibition of the first is lower: -12.5% for the first, -1.08% for the second.

Going from `Cc1nc2cc(-c3ccccc3)nn2c(C)c1CCC(=O)N1CCN(c2ccccc2)CC1` to `Cc1ccc(C)c(N2CCN(Cc3nnc(-c4ccccc4)o3)CC2)c1`, the inhibition falls from 6.36% to 3.88%.

Compared with `Cc1ccccc1CN1CCN(CC(=O)NCc2ccccc2Cl)C1=O`, `CCOC(=O)c1ccccc1NC(=O)Cn1c2ncccc2c(=O)n1-c1ccccc1` is lower in inhibition: 12.5% for the first, -1.42% for the second.

First: CCc1ccc(C(=O)Nc2ccc3nn(-c4ccc(C)c(Cl)c4)nc3c2)cc1
Second: CCOC(=O)CSc1nc2ccc(NC(=O)c3ccccc3)cc2s1
The inhibition of the first is lower: -5.32% for the first, -0.803% for the second.

Going from `COc1cc(-c2nnc(SCCOc3ccc(C)c(Cl)c3)o2)cc(OC)c1OC` to `CCOCCCn1c(SCC(=O)Nc2ccc(OC)cc2OC)nc2ccccc2c1=O`, the inhibition falls from 11.7% to 0.738%.

Compared with `Cc1ccc(NC(=O)CCS(=O)(=O)c2cccc3nsnc23)c(C)c1`, `COc1ccc(N(C)C(=O)CCS(=O)(=O)c2cccc3nsnc23)cc1` is lower in inhibition: 0.963% for the first, -5.85% for the second.

Compared with `CCOc1ccc(NC(=O)CSc2nc(-c3ccc(F)cc3)cc(C(F)(F)F)c2C#N)cc1`, `CCOc1ccc(NC(=O)CCS(=O)(=O)c2ccc3c(c2)n(C)c(=O)c(=O)n3C)cc1` is higher in inhibition: -5.32% for the first, 16.7% for the second.

Going from `CCCS(=O)(=O)Nc1cc2c(cc1NCc1ccccc1)n(C)c(=O)n2C` to `CCC(=O)N1CCc2cc(Br)cc(S(=O)(=O)NCCc3ccccc3)c21`, the inhibition falls from 0.62% to -27.1%.

First: Cc1ccc2cccc(NC(=O)C(C)(C)Oc3ccc(Br)cc3)c2n1
Second: COc1ccc(CNC(=O)C(C(C)C)N2Cc3ccccc3C2=O)cc1 (stereo unspecified)
The inhibition of the first is higher: 5.36% for the first, -4.31% for the second.

Going from `N#C/C(=C\c1ccc(-c2cc(Cl)ccc2Cl)o1)C(=O)Nc1ccccc1C(=O)O` to `CC(NC(=O)C(=O)Nc1c2c(nn1-c1ccc(F)cc1)CSC2)c1ccccc1` (stereo unspecified), the inhibition rises from -12.1% to -8.68%.

Compared with `CC(C)(C)C(=O)Nc1cccc(C(=O)OCc2cc(=O)n3nc(C4CCCCC4)sc3n2)c1`, `Cc1ccc(-c2onc(C)c2C)cc1S(=O)(=O)NC1CCCCC1` is lower in inhibition: -8.43% for the first, -8.75% for the second.

First: CCOC(=O)c1[nH]cnc1C(=O)Nc1ccc(F)cc1
Second: CCOC(=O)c1c(NC(=O)COc2ccc(F)cc2)sc2c1CCC(C)C2 (stereo unspecified)
The inhibition of the first is higher: 2.39% for the first, -6.31% for the second.

Going from `Cc1cc(C)c(Cn2c(C(O)c3ccccc3)nc3ccccc32)c(C)c1` (stereo unspecified) to `Cc1ccc(-n2c(=O)c3c(c4cc(C)ccc4n3C)n(CC(=O)Nc3cc(C)cc(C)c3)c2=O)cc1`, the inhibition rises from -5.21% to 3.87%.

First: COc1cccc(CNC(=O)CCNS(=O)(=O)c2ccc3c(c2)oc(=O)n3C)c1
Second: COc1cccc(CNC(=O)CCn2cccn2)c1
The inhibition of the first is higher: -0.243% for the first, -11.3% for the second.

First: CCN1CCN(CCCNC(=O)c2ccc3c(c2)sc2nc(-c4ccc(OC)cc4)cn23)CC1
Second: COc1ccc2c(c1)CCc1c(C(=O)Nc3c(C)nn(Cc4ccc(C)cc4)c3C)noc1-2
The inhibition of the first is higher: 14.3% for the first, 2.8% for the second.

Compared with `CCNc1c(NC(=O)c2cc(OCC)c(OCC)c(OCC)c2)c(=O)oc2ccccc12`, `CCOc1ccc(CCNC(=O)CN(c2ccc(C)cc2)S(=O)(=O)N(C)C)cc1OCC` is higher in inhibition: -9.59% for the first, 6.53% for the second.

First: COC(=O)c1nnn(CC(=O)Nc2ccc(Br)c(C)c2)c1N
Second: CC1Cn2cc(C(=O)Nc3cccc(C(F)(F)F)c3)c(=O)c3c(Cl)ccc(c32)O1 (stereo unspecified)
The inhibition of the first is lower: -6.57% for the first, 2.3% for the second.

First: CCCN(CCC)C(=O)C1CCN(c2ncnc3c2nc2n3CCCCC2)CC1
Second: O=c1c(S(=O)(=O)c2ccccc2)cn(Cc2ccc(F)cc2)c2cc(N3CCCCC3)c(F)cc12
The inhibition of the first is lower: -7.14% for the first, -4.32% for the second.
